From PMC4336329 (PLoS ONE, 2015)
About 14,000 (4.5%) of roughly 310,000 compounds showed an effect of 50% or more. Effects have a minus sign here. Some of the results follow.

Each compound was assayed against human ether-à-go-go-related gene (hERG) potassium channel (human, UniProt Q12809) (assay: primary screen, population patch clamp on CHO cells stably expressing hERG).
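Also: peak tail current of the secondary pulse compared with the same well before compound.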

Sequence of human ether-à-go-go-related gene (hERG) potassium channel (Q12809 whole entry, looked up): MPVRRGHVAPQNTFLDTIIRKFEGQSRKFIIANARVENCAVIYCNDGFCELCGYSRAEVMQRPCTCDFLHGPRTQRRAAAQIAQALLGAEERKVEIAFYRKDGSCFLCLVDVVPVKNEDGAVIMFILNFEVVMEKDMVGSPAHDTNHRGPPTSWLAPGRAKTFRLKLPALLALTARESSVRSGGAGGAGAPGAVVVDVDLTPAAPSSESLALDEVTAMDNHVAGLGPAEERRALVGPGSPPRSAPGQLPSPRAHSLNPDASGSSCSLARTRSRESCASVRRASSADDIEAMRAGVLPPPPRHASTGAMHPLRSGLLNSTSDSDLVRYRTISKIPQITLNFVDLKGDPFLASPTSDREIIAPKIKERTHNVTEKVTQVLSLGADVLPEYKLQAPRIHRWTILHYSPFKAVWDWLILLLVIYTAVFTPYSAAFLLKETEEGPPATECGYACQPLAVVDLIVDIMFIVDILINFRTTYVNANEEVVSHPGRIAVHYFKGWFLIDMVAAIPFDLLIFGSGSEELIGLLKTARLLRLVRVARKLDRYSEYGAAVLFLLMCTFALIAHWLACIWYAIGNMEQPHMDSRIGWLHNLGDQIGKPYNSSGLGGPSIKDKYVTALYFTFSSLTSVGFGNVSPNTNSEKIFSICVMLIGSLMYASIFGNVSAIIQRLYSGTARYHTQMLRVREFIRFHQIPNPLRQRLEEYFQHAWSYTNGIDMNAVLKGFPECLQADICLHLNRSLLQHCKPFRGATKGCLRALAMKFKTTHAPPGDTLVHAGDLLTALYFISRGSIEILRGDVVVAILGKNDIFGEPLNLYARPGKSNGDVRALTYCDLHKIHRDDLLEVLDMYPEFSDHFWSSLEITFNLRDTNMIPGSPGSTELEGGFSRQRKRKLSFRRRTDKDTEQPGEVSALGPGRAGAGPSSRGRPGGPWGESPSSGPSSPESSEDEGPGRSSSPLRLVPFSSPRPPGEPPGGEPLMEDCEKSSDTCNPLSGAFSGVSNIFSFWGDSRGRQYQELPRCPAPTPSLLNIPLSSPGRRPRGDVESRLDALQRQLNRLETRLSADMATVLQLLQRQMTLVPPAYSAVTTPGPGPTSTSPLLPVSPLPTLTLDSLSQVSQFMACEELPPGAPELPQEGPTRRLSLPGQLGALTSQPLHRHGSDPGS

Point of comparison: `CC(C)(NO)/C(=N/O)c1cccs1`, “hERG current change (%, negative = inhibition) at 10uM” value -21.1%. Against it:
- COC(=O)c1cc(C(=O)NCc2ccccc2)c(=O)[nH]c1C — higher, -7.21%
- Cc1cc(C)cc(OCC(=O)N2N=C(C(F)(F)F)CC2(O)C(C)(C)C)c1 (centres unmarked) — higher, 3.64%
- O=C(Cn1ncc(Cl)c(Cl)c1=O)N1CCOCC1 — higher, 15.2%
- CCOC(=O)c1c(CN2CCCCC2)n(C)c2cc(Br)c(O)cc12 — lower, -68.2%
- COC(=O)COc1ccc(S(=O)(=O)Nc2cc([N+](=O)[O-])ccc2C)cc1 — higher, 19.3%
- O=C(Cc1cccc2ccccc12)N/N=C/c1ccc(O)c([N+](=O)[O-])c1 — lower, -21.7%
- Cc1c(Cc2ccccc2)c(=O)oc2cc(OCC(=O)NCc3ccccn3)ccc12 — higher, 3.79%
- CCCCCCCCN1[C@@H](CC(=O)OC)c2cc(F)ccc2S1(=O)=O — lower, -33.2%
- COc1cccc(C(=O)NCCS(=O)(=O)N2CCC3(CC2)OCCO3)c1 — higher, 5.1%
- CCO/C=C1/C(=O)N(Cc2ccccc2)C(=O)c2ccccc21 — higher, 0.133%
- O=C(Nc1ccccc1-c1ccccc1)c1cccc([N+](=O)[O-])c1 — higher, -2.04%
- COc1ccc2nc(N3C(=O)CNC3=S)sc2c1 — higher, -1.63%
- CSc1nc(-c2ccccc2)nc(NC(C)=O)c1C(C)=O — lower, -23.9%
- Cc1ccc(S(=O)(=O)N2CCN(CC(=O)Nc3ccc4c(c3)CCC4)CC2)cc1C — higher, 16.6%
- CN(C)N=Nc1ccc2nc[nH]c2c1 — higher, 6.6%
- O=C(CCCN1C(=O)/C(=C/c2ccco2)SC1=S)Nc1cccc(C(=O)O)c1 — higher, 2.38%
- CCn1c(CC(=O)Nc2ccc(C)cc2)nnc1SCC(=O)NCCc1ccccc1 — higher, -4.96%
- CC1CCc2ccccc2N1C(=O)c1cccs1 (centres unmarked) — higher, 2.28%
- COC(=O)COc1ccc2c(=O)c(Oc3ccccc3)c(C)oc2c1 — higher, 21.1%
- CC(C)OC(=O)C(C(=O)C(F)(F)F)c1cc(NS(=O)(=O)c2ccc3ccccc3c2)c2ccccc2c1O (centres unmarked) — higher, -17.2%
- O=C(c1ccccc1)N1N=C(c2ccccc2)CC1c1cccs1 (centres unmarked) — higher, 6.38%
- CN(C)[C@@H]1C(=O)C(C(N)=O)=C(O)[C@@]2(O)C(=O)C3=C(O)c4c(O)cccc4[C@@](C)(O)C3[C@H](O)C12.O (some centres unmarked) — higher, -10.5%
- C=C(C)CNC(=O)c1ccc(OC2CCN(S(=O)(=O)N(C)C)CC2)cc1 — higher, 12.3%
- Cc1ccc(S(=O)(=O)NCCc2cc3ccc(C)cc3[nH]c2=O)cc1 — higher, -1.35%
- CCN1CCN(c2ccc([N+](=O)[O-])cc2C=C2C(=O)NC(=O)NC2=O)CC1 — lower, -66.3%
- O=C(CN1C(=O)c2ccccc2C1=O)NCc1ccc(N2CCOCC2)cc1 — higher, 14.1%
- CCCCS(=O)(=O)Nc1ccc(C(=O)NCC2CCCO2)cc1 (centres unmarked) — higher, -4.69%
- CCOC(=O)Nc1nnc(-c2cccc(OC)c2)s1 — higher, -9.03%
- CC(=O)c1c(C)[nH]c(C(=O)OCC(=O)N2CCCC2=O)c1C — higher, 9.37%
- COc1ccc(C)cc1S(=O)(=O)NCCN1CCOCC1 — higher, 17.5%
- COc1cc(CN(C(=S)NCC(=O)O)C2CCCC2)cc(OC)c1OC — higher, 21.2%
- CCNC(=S)NNC(=O)c1ccc2ncccc2c1 — higher, 8.95%
- Clc1cc(NCc2ccccc2)ncn1 — higher, 19.9%
- Cc1cccc(N2C(=O)C3CCCN3C2=S)c1C (centres unmarked) — higher, 8.46%
- CCOC(=O)c1c(/N=C/c2cc(OC)cc([N+](=O)[O-])c2O)sc(C)c1C — higher, 7.03%
- Cc1ccc(C(CC(=O)O)C2CCOC(C)(C)C2)cc1 (centres unmarked) — higher, 9.61%
- COc1ccccc1C(OC(=O)c1cccs1)C(=O)NCC1CCCO1 (centres unmarked) — higher, -3.77%
- NC(=O)C1CCN(C(=O)C2CCC(=O)N(CC3CCCCC3)C2)CC1 (centres unmarked) — higher, 2.85%
- CC(Cc1ccccc1)NC(=O)CCCCC(=O)NC(C)Cc1ccccc1 (centres unmarked) — higher, 9.95%
- COc1cccc(C2CCCN2Cc2nc(CC3CC3)no2)c1 (centres unmarked) — higher, 27.6%
- O=C(Nc1ccccc1[N+](=O)[O-])c1cccc(N2C(=O)CCC2=O)c1 — higher, 6.64%
- Cc1ccc(S(=O)(=O)N2CCCCC2CCNC(=O)C(=O)NCc2ccncc2)cc1 (centres unmarked) — lower, -28.1%
- Cc1ccc(NCc2nnc(SCC(=O)Nc3cc(C)on3)n2C)cc1 — higher, 12.1%
- CCNCc1cc(Cl)c(OCc2ccccc2)c(OCC)c1.Cl — higher, -8.51%
- c1ccc(CCNc2nc(-c3ccccn3)nc3ccccc23)cc1 — lower, -78.6%
- Cc1ccc2[nH]c(C)c(CCNC(=O)C3CCCCC3C(=O)OCC(F)(F)F)c2c1 (centres unmarked) — higher, -1.93%
- O=C(CCn1cncn1)N1CCN(S(=O)(=O)c2ccc(Cl)cc2)CC1 — higher, 1.16%
- CCOC(=O)Cc1csc(NC(=O)CSc2nnc(C(C)C)n2CC)n1 — higher, 6.72%
- CC(C)Oc1ccc(C2CC(=O)N(C)C2=O)cc1 (centres unmarked) — higher, 11.9%
- CCC(C(=O)NCCCc1ccccc1)c1ccccc1 (centres unmarked) — higher, -20.3%
- COc1cc2c(cc1OC)CN(C(=O)/C=C/c1ccc(F)cc1)CC2 — lower, -22.2%
- O=C1CCN(Cc2ccccc2)S(=O)(=O)c2ccccc21 — higher, -1.02%
- O=C(C1CC(=O)N(c2ccc3c(c2)OCCO3)C1)N1CCCC(C(F)(F)F)C1 (centres unmarked) — higher, 8.2%
- COC(=O)C1=C(C)NC(=O)/C1=C\c1cc(C)n(-c2ccccc2)c1C — higher, 20.3%
- CCOc1ccc(C(=O)OCC(=O)NCc2ccco2)cc1OCC — higher, -6.89%
- Cc1ccc(C(C)C)c(OCC(=O)N/N=C2\CC(=O)CC(C)(C)C2)c1 — higher, -16.7%
- O=C(NCCSCc1ccccc1)c1ccc(C2SCC(=O)N2Cc2ccccc2)cc1 (centres unmarked) — higher, -8.07%
- Cc1ccc(NC(=O)CCC(=O)NNC(=O)COc2ccccc2)c(C)c1 — higher, 12.1%
- CC(=O)NCCc1nc2cc(NS(=O)(=O)c3ccccc3)ccc2n1C — higher, -2.3%
- CCCCCCCCNC(=O)C(CCC(=O)OCc1ccccc1)NC(C)=O (centres unmarked) — higher, -13.1%
- O=C(NC1CCCC1)c1ccc(Cl)s1 — higher, 9.43%
- CCC(=O)Nc1ccc(NC(=O)CCc2ccccc2)cn1 — higher, 9.32%
- [Cl-].c1ccc(C[n+]2cccc3c4ccccc4ccc32)cc1 — higher, -15%
- CCC(C)NC(=O)C1CCN(S(=O)(=O)c2ccc(Br)s2)CC1 (centres unmarked) — higher, 0.913%
- COc1ccc(CNC(=O)CC2Sc3ccccc3NC2=O)cc1 (centres unmarked) — higher, 25.1%
- CCOC(=O)C1=NOC2C(=O)N(c3ccc(Cl)cc3Cl)C(=O)C12 (centres unmarked) — higher, 21.3%
- COc1ccc(NC(=O)CSc2nnnn2C)cc1 — higher, -0.981%
- CC1CCCCC1NC(=O)CN1CCC(O)(c2ccc(F)cc2)CC1 (centres unmarked) — higher, -18%
- O=C(NNC(=O)c1cc2ccccc2cc1O)Nc1ccc(F)cc1F — higher, 17%
- O=C1CCCC/C1=C\Nc1ccc(O)cc1 — higher, 8.01%
- COc1ccc2c(c1)CCCN2C(N)=O — higher, 17.4%
- C=CCNC(=O)CSc1ccc(Cl)cc1 — higher, 15.2%
- Cc1cc(N2CCN(C(=O)c3cccs3)CC2)c(F)cc1[N+](=O)[O-] — lower, -67%
- CCOC(=O)c1cnc2ccc(OC)cc2c1NCCN1CCOCC1 — lower, -48.5%
- O=[N+]([O-])c1ccc(OCCOCCOc2ccc([N+](=O)[O-])cc2)cc1 — higher, -16.6%
- CC(C)c1ccc(O)c(NC(=S)NC(=O)c2cccnc2)c1 — higher, 11%
- COc1cccc(C(=O)Nc2cc3c(cc2Br)OCCCO3)c1 — higher, -13.1%
- CCCCC1CCC(C(=O)OC(C)C(=O)Nc2ccc(NC(C)=O)cc2)CC1 (centres unmarked) — higher, 15.8%
- COc1ccc(Nc2nc(Nc3ccc(OC)cc3OC)nc(N3CCN(C)CC3)n2)c(OC)c1 — lower, -22.6%
- Cc1ccc(C(=O)NCC(=O)OCCOc2ccccc2Cl)cc1 — higher, 1.55%
- O=C(Nc1ccc(Br)cc1)C1CC(c2c(F)cccc2Cl)=NO1 (centres unmarked) — higher, -8.82%
- COc1ccc(-c2nc(=S)[nH][nH]2)cc1 — higher, 16.7%
- CCOC(=O)C(=O)Nc1nc(-c2ccc3c(c2)CCN3C(=O)C2CC2)c(C)s1 — higher, 8.4%
- CN1C(=O)/C(=C/c2ccc(N3CCCCCC3)o2)C(=O)NC1=S — higher, -6.31%
- S=C(Nc1ccccc1)N1CCN(C(=S)Nc2ccccc2)CC1 — higher, 25.2%
- S=C(NCc1ccco1)N1CCN(Cc2ccco2)CC1 — higher, 1.76%
- COCCN1C(=O)C(=O)/C(=C(/O)c2ccc(S(=O)(=O)N3CCCCC3)cc2)C1c1ccc(O)c(OC)c1 (centres unmarked) — higher, 17.9%
- Cc1cccc(Nc2nnc(SCC(=O)NC3CCCc4ccccc43)s2)c1 (centres unmarked) — higher, -6.63%
- COc1ccc(OC)c2[nH]c(C(=O)O)cc12 — higher, 5.39%
- CCOC(=O)C1=C(c2ccccc2)NC(=O)NC1c1ccc(OC)cc1OC (centres unmarked) — higher, -0.406%
- O=C(O)CCC(=O)NCc1cn(-c2ccccc2)nc1-c1cccc(Br)c1 — higher, 15.1%
